Experimental data published in the supplement of paper PMC3334620.
Over roughly 33,000 sequences, “E-score (-0.5 to 0.5)” has its median near -0.035; the highest 2% begin near 0.34. The list shows a part of the results.

Target: T1, Mot3 (UniProt P54785)
T1 sequence: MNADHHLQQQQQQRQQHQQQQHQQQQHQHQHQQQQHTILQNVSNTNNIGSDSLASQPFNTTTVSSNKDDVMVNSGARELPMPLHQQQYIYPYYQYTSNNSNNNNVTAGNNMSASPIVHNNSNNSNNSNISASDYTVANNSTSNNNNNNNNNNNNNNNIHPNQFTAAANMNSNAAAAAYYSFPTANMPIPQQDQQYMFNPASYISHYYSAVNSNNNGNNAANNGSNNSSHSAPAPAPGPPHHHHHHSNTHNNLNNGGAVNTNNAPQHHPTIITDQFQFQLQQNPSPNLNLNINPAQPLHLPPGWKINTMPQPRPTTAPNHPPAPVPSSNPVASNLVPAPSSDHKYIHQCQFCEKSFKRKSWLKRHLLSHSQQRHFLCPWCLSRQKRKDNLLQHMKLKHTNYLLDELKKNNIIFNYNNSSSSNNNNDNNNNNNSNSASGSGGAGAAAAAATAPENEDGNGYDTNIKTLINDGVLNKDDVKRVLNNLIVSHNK
Assay: PBM E-score (8-mer binding enrichment) (E-score (-0.5 to 0.5)); higher = stronger / more preferred TF binding; most listed sequences are background and not binding sites
Details: protein concentration: 200 nM; construct: GST-full length
Method in brief: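 GST-tagged yeast TFs (full-length or DNA-binding domain) were made by PURExpress in vitro transcription/translation and applied at about 100-200 nM to universal all-10-mer Agilent arrays. The arrays were made double-stranded by primer extension, on fresh or once-stripped slides. Bound protein was detected with fluorescent anti-GST, and scans were normalised with masliner. Each ungapped eight-base word, pooled with its reverse complement, received an E-score (modified Wilcoxon-Mann-Whitney statistic) from the Universal PBM Analysis Suite.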

Row | Sequence | PBM E-score
1 | TAAATTAA | 0.215
2 | ATGTGAAC | 0.132
3 | AGCGCTTA | -0.0175
4 | ACGACAAC | 0.146
5 | ATCTAGCA | 0.0225
6 | GGCGCTTA | -0.14
7 | ATATTAAT | 0.072
8 | CCTTGATA | 0.108
9 | ATTGCACC | 0.171
10 | ACGTCCCT | 0.0654
11 | ACGATAAA | 0.0953
12 | ATATCTGC | -0.149
13 | CTCAAACA | 0.176
14 | TAGGCCCA | 0.0261
15 | ACTGCCCG | -0.127
16 | GTTGACTA | -0.0493
17 | ACATGTAA | 0.437
18 | AACTCTCT | -0.19
19 | GCCTTGGA | 0.018
20 | AGAGGCTG | -0.18
21 | AAAGTAGG | 0.226
22 | CTAAAGAA | 0.192
23 | ACCGCGGG | -0.0782
24 | AACGCTTC | 0.0166
25 | AACCACCA | 0.0159

Row | Sequence | PBM E-score
26 | ATGAAAAG | -0.044
27 | CTCTAGAC | -0.0965
28 | ACATACTA | 0.188
29 | AGCCGCAT | -0.0444
30 | ACTGCTTA | 0.0258
31 | CACCATTA | 0.0595
32 | AGAGCCAG | -0.0378
33 | ACCACAGA | -0.0586
34 | AAATCGTC | -0.143
35 | ATATGACG | 0.0195
36 | CATCTCGG | -0.266
37 | TAGTTGCA | -0.0803
38 | GATATTTA | 0.145
39 | CGTCAACC | -0.0141
40 | CTGTTATC | 0.0617
41 | ACGCTGGA | -0.0979
42 | CAGGGAGG | -0.165
43 | CCACGACA | -0.222
44 | GGAGAATA | 0.0174
45 | ACCTCATG | -0.175
46 | GCCGCAGC | -0.289
47 | ACCGTAGC | -0.129
48 | GTAATTAC | 0.378
49 | GTGTCCAA | 0.0604
50 | GTTTTAAA | 0.139

Row | Sequence | PBM E-score
51 | GCGGGTGA | -0.126
52 | CAGAAGCG | -0.219
53 | CGTGCGGC | -0.342
54 | CCGCTTCG | -0.234
55 | AACAAGCA | 0.206
56 | CGGTTGGA | -0.154
57 | AGTATCAA | -0.0205
58 | TATGTAAA | 0.434
59 | ATCATCAG | 0.00601
60 | CCGGCGCG | -0.153
61 | ATTGAAAT | 0.0839
62 | AGATGGTG | -0.0242
63 | TTTACAAA | 0.331
64 | ATTGCAGG | 0.181
65 | ATTCGGTC | -0.0932
66 | GAGACAGA | -0.139
67 | GGTGGGCA | 0.0151
68 | CCACTACG | -0.0192
69 | AAACGTCA | -0.0312
70 | ACGGACGC | -0.134
71 | ACCGCGCA | 0.0547
72 | GAACGAGA | -0.0612
73 | GTTGGCCA | -0.263
74 | CAACGCGA | 0.17
75 | AAAAGAAT | 0.171

Row | Sequence | PBM E-score
76 | GACGCGAA | 0.003
77 | AGATCCGG | -0.183
78 | CCATGTTC | 0.174
79 | ACGATAGA | -0.0189
80 | ACGCACGT | 0.101
81 | CCCCGTGC | 0.141
82 | CCTTTATA | 0.222
83 | ACATAACG | 0.271
84 | AGCCTTTA | 0.249
85 | GTGCGAAC | -0.257
86 | ATCGCGGA | -0.412
87 | CTACAGTC | 0.0559
88 | ACCACTCC | -0.311
89 | AGAAGATG | -0.0405
90 | ACAGGTAT | 0.194
91 | CGCGTACC | 0.131
92 | TACGACAA | 0.0669
93 | CATCACCA | -0.193
94 | CGGGTAGA | -0.0712
95 | AAGGGGAG | -0.265
96 | CCTCCACG | -0.182
97 | ATTTGCGA | 0.0812
98 | GTTTGACA | 0.163
99 | CCCGCCGC | -0.301
100 | TGAAAGAA | 0.0538

Row | Sequence | PBM E-score
101 | TCTAAAAA | 0.135
102 | ACCTTTTC | -0.0984
103 | CTGCAGTA | -0.0302
104 | CAGAACGG | -0.218
105 | ACACGTAT | 0.316
106 | CCCTAGAA | -0.0463
107 | CGTCCCGA | -0.203
108 | GCCCAGCC | -0.249
109 | AAAACGGT | -0.0282
110 | ATTTTGAC | 0.182
111 | CTACCGAC | -0.119
112 | CAATTACG | 0.26
113 | AATCACAG | 0.125
114 | CTGAAACC | 0.0366
115 | GCAAAACC | -0.224
116 | AAACAAAT | 0.0643
117 | ACTGATCC | 0.0553
118 | AACCACCC | -0.189
119 | GACTATAA | -0.0717
120 | CCCGAACA | -0.0874
121 | GGTTGCAA | 0.135
122 | AGAATGTA | 0.199
123 | ACGATCAC | 0.0347
124 | ATGCTGGC | -0.024
125 | AAGTACCT | 0.338

Row | Sequence | PBM E-score
126 | CGAAATTC | -0.00685
127 | ACGCCGCG | -0.0932
128 | TACGCGGA | 0.258
129 | CGGAAATA | -0.206
130 | AACTGCTT | -0.0923
131 | AATAGCCC | -0.0901
132 | ATTGGTTA | -0.00722
133 | CGGTAGCA | 0.0236
134 | ACGCGGCA | -0.0255
135 | AGGGCCGA | -0.203
136 | GAAAAGAA | 0.162
137 | AAGCATGC | 0.0444
138 | AGCTGTGC | 0.0823
139 | CAGGATGC | -0.26
140 | AGCAAGAG | 0.0849
141 | GCATATGC | -0.12
142 | ACGCCGGC | -0.185
143 | TACACATA | 0.284
144 | AGGTAGCG | -0.103
145 | AGGGCTGA | -0.111
146 | ACTGAACA | 0.113
147 | GAGGATAA | -0.114
148 | CTGCTTTC | -0.106
149 | ATGGACAC | 0.00818
150 | AAGTAAAT | 0.295

Row | Sequence | PBM E-score
151 | CCATACTA | 0.0332
152 | CTCGTACC | 0.11
153 | AGATCTAG | -0.0228
154 | ATTTGATA | -0.0394
155 | AGCATACT | -0.00471
156 | AGTGTCGC | -0.0232
157 | AGTGGGAG | -0.195
158 | ATACACCA | 0.129
159 | ATAGATAT | 0.00143
160 | ACAACCTG | 0.207
161 | ACGTAAGG | 0.134
162 | GCCTCGAC | 0.134
163 | GTATTTAA | 0.332
164 | GGCACACC | 0.28
165 | CGACTAAG | -0.0615
166 | ATTTTCCC | -0.089
167 | TCTGCAGA | -0.327
168 | TCTACGAA | 0.0989
169 | AGAAGTGG | -0.199
170 | TATTAACA | 0.359
171 | AATGCGAG | -0.081
172 | AGTCGGTG | -0.245
